Laboratory results: the RNAGym collection of RNA variant scans (doi:10.7554/elife.90254)
Read counts are not given, so values of variants with three or more changes are uncertain.

B1: LINE1-mini (parent)
chain: GGCAGAGCUCAACACAGCGUGGCAAAGUGGCUGUGGCUAGACUGCC

Variants of: B1
Assay: self-cleavage, relative activity (ratio to wild type); higher = more cleavage; in vitro, sequencing; the parent is a self-cleaving ribozyme

Variant	self-cleavage
GGCCGAGCUCAACAUAUCGUGGCAAAGUGGCUGUGGCUAGACUGCC	0.08
GGCCAAGCUCAACACUGCGUGGCAAAGAGGCUGUGGCUAGACUCCU	0.06
GGCCGAGAUCAACACAGCGUGGCCAAGUGGCUGUGGCUAUACUGCC	0.06
GGCCGAGCUCAACACAGCGUGGCAGUGUGGCUGUGGCAAGACUGCC	0.07
GGCCGAGCUCAACGCAGCGUGGCAAAGUUGCUGUGGCUAGACUGGC	0.01
GGCCGAGUUCAACACAGCGUGGGAAAGUGGCUGUGUCUAGACUGCC	0.13
GGCCGAGGUCAACACAGCGUGGCAAAGGGGCUGUGGCUAGACUGCC	0.05
GGCCGAGCUCAACACAGUGUGGCAAAGUGGCUAUGGCUAGACUGCC	0.01
GGCCGAGUUCAAGACAGCGUGGCAAAGUGGCUUUGGCUGGACUGCC	0.05
GGCCGAACUCAACACAGAGUGGCAAAGUGGCUGUCGCUUGACUGCC	0.02
GGCCGAGCUCAACACAGGGUAGCAAAGUGGCUGUGGCUAGACAGCC	0.04
GGCCGAGCUCAACACAGUGUGGCAGGGUGUCUGUGGCUAGACUGCC	0.02
GGCCCAGUUCAACACAGCGUGGCAAAGUGGCGGUGGCUAGACUGCC	0.12
GGCCCAGCUCAACACAGCGGGGCAAAGUGGCUGUGGCUAGACUGCC	0.03
GGCCGAGCUCAGAACAGCGUGGCACAGUGGCUCUGGUUAGACUGCC	0.02
GGCCGAGCUCAACACAGCGUGGCACAGUGGCUGUGGCUAGUCUGCC	0.04
GGCCGAACUCAACACAGAGUGGCAAGGUUGCUGUGGCUAGACUGUC	0.14
GGCCGAGCUUAACACAGCGUGGCUAAGUGGCUGUGGCUAGACUUCC	0.03
GGCCGAGCUAAACACAGCGUGGCAAAGAGGCUGUGGCUAGACUGCC	0.01

Variant	self-cleavage
GGCCGAGCUUAACACAGUUUGGCAAAGUGGCUGUGGCUGGACUGCC	0.03
GGCCGAGCUCACCACAUCGUGGCAAAGUGGCUGUGGCAAGACUGCC	0.03
GGCCGAGCUCAGCACAGCGUGGGAAAGUGGCUGUGGCUAGACUGCC	0
GGCCGAGCUUAACACAGCGUGGCAAGGUGGCUGUGGCUAGACUGCC	0.03
GGCCGAGCUCAACACAGUGUGGCAAAGUGGCUGUGGUUAGACUGCC	0.19
GGCCGAGCUCAACCUAGCGUGGCAAAGUGACUGUGGCUAGACUGCC	0.1
GGCCGAGCUGAACACAGCGUGACAAAGUGGCUGUGGCUAGACUGCC	0.03
GGCCGAGCUCAACACAGUCUGGCAAAGUGGCUGUGGCUAGACUGCC	0.03
GGCCCCGCUUAACACAGCGUGGCAAAGUGGCUGUGGCUAGACUGCC	0.04
GGCCGAGCUCAACACAGCGUGGGAAAGUGGCUGUGGGUAGACUGCC	0.31
GGCCGAGCUAAACAGAGCGAGGCAAGGUGGCUGUGGCUAGACUGCC	0.01
GGCCGAACUCAACACAGCGUGGCAAAGUGGCUGUGGCUUGACUGCC	0.11
GGCCGAGCUCAUCACAGCGUGGUAAAGUGGCUGUGGCUAGACUGCC	0.52
GGCCGAGUUCAACACAGCGUGGAAAAGUGGUUGUGGCUAGACUGCC	0.02
GGCCGAGCUCAACACAGCGUGGAAAAGUGGCUGUGGCUAGACAGCC	0.02
GGCCAAGCUCAACACAGCGUGGCAAAGUGGCUGUAGCUAGACUGCC	0.06
GGCCGAGCUCCACACAGCGUGGCAAAGUGACUGUGGGUAGACUGGC	0
GGCCGAGCUCAACACAGCGUGGGAAAGUGGCUGUGGCUAGACCACC	0.05
GGCCGAGCUCAACACAGCGUGGCGAAGUAGCUGUGGCUAGCCUGCC	0.11

Variant	self-cleavage
GGCCCAGCUCAACACAGGGUGGCAAAGUGGCUGUGGCUAGACUGCC	0.03
GGCCGAGCUUAGCACAGCGUGGAAAAGUGGCUGUGGCUAGACUGCC	0.03
GGCCGAGCUUAACAGAGCGUGGCAAAGUGGCAGUGGCUAGUCUGCC	0
GGCCGAGCUCAACACUGCGUGGCAAAGUUGCUGUAGCUAGACUGCC	0.06
GGCCGAGCUCAACACAGCGUGGAAAAGUGCCUGUGGCUAGACUCCC	0.06
GGCCGAGCUCAACACAGCGUGGCUAAGUGGCUAUGGCUGGACCGCC	0.01
GGCCCAGCUCAACACAGGGUGGCAAAGUGGCUGUGGCCAGACUCCC	0.02
GGCCGAGCUCCACACAGGGUGACAAAGUGGCUAUGGCUAGACUGCC	0.05
GGCCGAGAUCAACACUGCGUGGCAAAGUGGCUGUGGCUAAACUGCC	0.04
GGCCGAGAUCAACACAGUGGGGCACAAUGGCUGUGGCCAGACUGCC	0.04
GGCCGAGCUCAACACAGCGUGGCAUAGUGGAUGUGGCGAGACUGCC	0.01
GGCCGAGCUAAACAGAGCGUGGCAAAGUUGAUGUGGCUAGAAUGGC	0
GGCCGAGCUCAACACAGCGUGGCAAAGUGGAUGUGGCUAGCCUGCC	0.04
GGCCGAGCUCAACUCAACGUUGCAAAGUGGCUGUGGCUAGACUGCC	0.11
GGCCGAGCUCAAUACAGCGUGGCAAAGUGGUUGUGGCUAGACUGCC	0.05
GGCCGAGUUCAACACAGCGGGGGAAAUUUGCUGUGGCUAGACUUCC	0.07
GGCCGAGGUCAACACAGCGCGGCAAAGUGGCUUUGGCUAGACUGCC	0.83
GGCCGAGCUCAACUCAGCGAGGCAAAGUGUCUGUGGCUAGUCUGCC	0.01
